According to PubChem BioAssay AID493035 (The Scripps Research Institute Molecular Screening Center, 2011):
In all, about 2,000 compounds went through this assay and about 45 (2%) were called active.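 How the source made its calls: active means inhibition above the mean of all tested compounds plus 3 SD (cut at about 49% in these data); inactive means the rest.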 Some of the results follow. Where a SMILES comes first, the peptide text is derived from it. The star is where a group is joined. Boc = CC(C)(C)OC(=O)*

target: Perilipin-5 (Homo sapiens) + 1-acylglycerol-3-phosphate O-acyltransferase ABHD5 (Homo sapiens) (UniProt Q00G26+Q8WTS1); experiment: blockers of ABHD5 binding to perilipin-5 – cell lysate, split luciferase complementation, luminescence, NIH validation set, pilot screen (AID 493035);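 further: 0% = DMSO only wells while the 100% control is not stated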; conditions: split G. princeps luciferase complementation, lysates, 4 h; at 7.9 µM, active compounds read high
UniProt Q00G26, sequence (Q00G26 whole entry, looked up): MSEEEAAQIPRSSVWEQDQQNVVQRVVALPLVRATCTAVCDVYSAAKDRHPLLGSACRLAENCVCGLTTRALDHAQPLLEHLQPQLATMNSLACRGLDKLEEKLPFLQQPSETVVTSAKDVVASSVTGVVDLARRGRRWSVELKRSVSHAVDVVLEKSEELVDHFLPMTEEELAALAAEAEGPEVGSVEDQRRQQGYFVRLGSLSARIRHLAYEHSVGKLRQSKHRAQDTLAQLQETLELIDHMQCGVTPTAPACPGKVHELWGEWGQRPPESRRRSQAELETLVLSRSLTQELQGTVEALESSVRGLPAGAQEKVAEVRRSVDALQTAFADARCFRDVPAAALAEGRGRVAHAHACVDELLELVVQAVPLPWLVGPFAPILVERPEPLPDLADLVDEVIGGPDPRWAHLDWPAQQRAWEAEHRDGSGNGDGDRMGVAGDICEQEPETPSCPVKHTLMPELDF
UniProt Q00G26, sequence (Q8WTS1 whole entry, looked up): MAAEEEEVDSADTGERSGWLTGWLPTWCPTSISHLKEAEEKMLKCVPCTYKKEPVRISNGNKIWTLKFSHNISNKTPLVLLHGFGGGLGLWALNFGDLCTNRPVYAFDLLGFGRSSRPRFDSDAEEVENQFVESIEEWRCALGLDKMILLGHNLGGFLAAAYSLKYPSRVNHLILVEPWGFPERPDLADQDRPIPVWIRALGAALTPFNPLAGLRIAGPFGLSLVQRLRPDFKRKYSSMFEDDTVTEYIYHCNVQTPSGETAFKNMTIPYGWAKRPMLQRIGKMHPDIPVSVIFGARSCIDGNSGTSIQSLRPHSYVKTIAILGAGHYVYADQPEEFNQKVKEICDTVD

inhibition, active:
CSCCC(NC(=O)OC(C)(C)C)C(=O)Oc1ccc2c(=O)c(-c3ccc4c(c3)OCCO4)coc2c1 (stereo not given) 69.1%

inhibition, inactive:
Cc1oc2c(CN3CCCC3)c(O)ccc2c(=O)c1-c1ccc(Cl)cc1 -4.97%
CN(C)CCOC(C)(c1ccccc1)c1ccccn1 (stereo not given) -6.69%
COc1ccccc1C(=O)Oc1ccc2c(c1)O/C(=C\c1ccncc1)C2=O 35.9%
Cc1csc(-c2coc3cc(O)cc(C)c3c2=O)n1 -5.36%
COc1ccc(NC(=O)C2C(=O)N(CCO)C3(C)CC2c2ccccc2O3)cc1 (stereo not given) -8.28%
Cc1ccc(S(=O)(=O)n2ccnc2)cc1C -3.74%
CC(C)CC(NC(=O)C1CCCN1C(=O)OC(C)(C)C)C(=O)NCC(N)=O (stereo not drawn) (Boc-Pro-Leu-Gly-NH2; configuration not given here) -15.8%
Cc1ncc(C(=O)O)c(C(=O)O)c1N -8.5%
CN1CCN(CCCN2c3ccccc3Sc3ccc(C(F)(F)F)cc32)CC1 -22.1%
CNC[C@H](O)c1ccc(O)c(O)c1 -19.5%
CC(C)[N+]1(C)[C@@H]2CC[C@H]1CC(OC(=O)C(CO)c1ccccc1)C2 (stereo not given in full) -2.34%
C[N+]1(C2CCC3CCCC2C3O)CCCCC1 (stereo not given) -6.88%
COC(=O)c1cc(-c2ccc(OC)c(OC)c2)on1 -3.76%
COc1ccc(/C=C/C(=O)Nc2ccccc2C(=O)O)cc1OC -12.4%
CC(=O)N/C(=C/c1ccc2c(c1)OCO2)C(=O)NCCO 2.23%
COC(=O)c1[nH]c(=O)c2ccccc2c1O -0.91%
CCc1nc2ccccc2c(NC(=O)CN2CC(C)CC(C)C2)c1C (stereo not given) -7.88%
Oc1ccc(/C=C/c2cc(O)cc(O)c2)cc1 -3.51%
COc1cccc(OC)c1C(=O)NCCSC1CCCCC1 -2.37%
CNc1nc(Nc2ccccc2)nc(OCC(F)(F)F)n1 -7%
COc1ccc(C(=O)/C=C2/c3ccccc3CC(C)(C)N2C)cc1 5.27%
O=C(CCC(=O)NCCO)NCCO 9.88%
Oc1c(Cl)cc(Cl)c(Cl)c1Cc1c(O)c(Cl)cc(Cl)c1Cl -0.34%
COc1cccc(-n2c(C)c3c(OC)cccc(=O)c3c2C)c1 10.7%
CCCCC[C@H](O)/C=C/C1=C(CCCCCCC(=O)O)C(=O)CC1 31.5%
Cc1ccc(Nc2ncccc2C(=O)O)cc1C -2.37%
O=C(CCCCCCCC(=O)c1ccccc1)c1ccccc1 -4.5%
Cc1cc(=O)[nH]c(=S)[nH]1 4.14%
C=C(C)Cn1c(NCCOC)nc2c1c(=O)[nH]c(=O)n2C -5.42%
CC(=O)c1ccc(CCCCCCCCCC(=O)O)s1 -4.85%
COc1cc2c(cc1OC)/C(=C/c1ccc(Cl)cc1)C(=O)OC2 33.3%
C=CCOc1ccc(C(=O)CC)cc1OC -3.26%
Cn1c(=O)[nH]c2nnc(-c3ccc(Cl)c(Cl)c3)nc2c1=O 1.39%
CC(C(=O)O)c1ccc(-c2ccccc2)c(F)c1 (stereo not given) 0.19%
Cn1c(=O)c2nc3ccccc3nc2n(C)c1=O -9.31%
COc1ccc(/C=N\NC(=O)CCc2c(C)n[nH]c2C)c(OC)c1OC -16.6%
O=P(O)(O)CP(=O)(O)O -0.22%
O=C(CCCC(=O)OCC1CCCO1)OCC1CCCO1 (stereo not given) -12.9%
Cc1cc(=O)oc(C)c1C(=O)NCCC(C)C -4.73%
CC(=O)N1N=C(c2cccs2)CC1c1ccc(C)o1 (stereo not given) -5.76%
O=C(Cc1c[nH]c2ccccc12)OCCOC(=O)Cc1c[nH]c2ccccc12 2.96%
COc1ccc2[nH]c3c(=O)n(/N=C/[C@H]4C(C)C=C(C)CC4C)c(=O)[nH]c3c2c1 (stereo not given in full) 22.8%
COc1cc2c(cc1OC)C(c1cc(OC)c(OC)c(OC)c1)NCC2 (stereo not given) -1.51%
CN(C)C(=O)C(CCN1CCC(O)(c2ccc(Cl)cc2)CC1)(c1ccccc1)c1ccccc1 -12.5%
